Screen size: about 150,000 compounds; about 540 (0.36%) showed an effect of 50% or more. Some of the results follow.

This test deals with Plasmodium falciparum. In words: Primary screen in NF54 nanoGlo assay, in single point, at 2uM, 72h; a lower Z score goes with more inhibition. The following applies: timepoint 72 hour. The format is functional, Erythrocyte.
Broadly, the % Inhibition is the drop in the measured response relative to a control, in per cent. On to `COCC1CN(C(=O)Nc2ccnc3cc(C)nn23)C1`, for which the “% Inhibition” value is listed as -6% and the Z score amounted to 1.12.
Taken in the same sequence, the figures for `CCn1cc(S(=O)(=O)N[C@@H]2[C@@H]3CCO[C@@H]3[C@H]2N(C)C)cn1` were 13% and -1.64.
On to `OC[C@H]1CCCN1c1ccc(Br)cn1`, for which the “% Inhibition” value is listed as -10% and the Z score amounted to 1.5.
Take `N#Cc1ccnc(Nc2ccc3c(c2)OCO3)c1`: the “% Inhibition” value is -3% and the Z score came out at 0.26.
Taken in the same sequence, the figures for `COc1cccc(C2(NC(=O)c3cnc(C)nc3C)CCOCC2)c1F` were -17% and 2.81.
The corresponding values for `Cc1cc(C)c2nc(C)cc(Nc3ccc(O)cc3)c2c1` are 85% and -12.86.
The corresponding values for `O=S(=O)(Cc1ccccc1)N1CCC(c2cc[nH]n2)CC1` are -9% and 1.22.
In the case of `O=C(NCc1ccncc1)c1ccc(OCc2ccccc2)cc1`, the “% Inhibition” value was -4% and the Z score turned out to be 0.57.
The corresponding values for `CCc1csc(CNC(=O)c2ccc(N3CCCO3)nc2)n1` are -16% and 1.46.
Taken in the same sequence, the figures for `O=C(c1ccccc1C(F)(F)F)N1CCc2ccccc2[C@H]1c1ccccc1F` were 3% and -0.4.
The corresponding values for `Cc1cc(C)c(-c2[nH]ncc2-c2nc3ccccc3s2)c(O)c1` are -9% and 0.79.
For the molecule `O=C(c1ccc(S(=O)(=O)N[C@H]2CCCc3ccccc32)s1)N1CCCC1`, the “% Inhibition” value is listed as -10% and the Z score is 1.94.
The corresponding values for `Cn1c2c(c(=O)n(C)c1=O)Cc1ccccc1N2` are 8% and -1.29.
Take `COc1cn(CC(=O)Nc2cccnc2)c(CO)cc1=O`: the “% Inhibition” value turned out to be 32% and the Z score is reported as -3.57.
Taken in the same sequence, the figures for `Cc1cc2nc(C(=O)N3CCC[C@H]3c3ccc(CN(C)C)cc3)cc(C)n2n1` were -2% and 0.33.
Regarding `O=C(Cn1ccc(C(F)(F)F)n1)N1Cc2cccnc2C1`, the “% Inhibition” value was -5% and the Z score worked out at 0.68.
Taken in the same sequence, the figures for `CC(=O)c1ccc(F)c(-c2ccc(C(=O)N(C)C[C@H]3COCCO3)cc2)c1` were -17% and 1.71.
Taken in the same sequence, the figures for `O=C1CN(C[C@@H](O)CN2C(=O)c3ccccc3C2=O)CCN1` were -5% and 1.02.
Taken in the same sequence, the figures for `COCCN1CCC2(CC1)C[C@@H](c1ccccc1)C(=O)N(C1CC1)C2` were -12% and 1.13.
Consider `N[C@@H](Cc1ccccc1)C(O)(c1ccccc1)c1ccccc1`, for which the “% Inhibition” value is -9% and the Z score was 1.39.
Taken in the same sequence, the figures for `Cc1ccc(CNC(=O)Nc2ccccc2N2CCCC2)cc1` were -5% and 0.46.
Taken in the same sequence, the figures for `CCCc1nc(N2CCCN(C(=O)COCc3ccccc3)CC2)c2c(-c3ccccc3)noc2n1` were -4% and 0.54.
Take `COc1ccc(OCc2cc(C(=O)N[C@H]3CCCNC3=O)n[nH]2)c(Cl)c1`: the “% Inhibition” value is listed as -6% and the Z score is listed as 1.08.
Taken in the same sequence, the figures for `Cc1ccc(NC(=O)c2cn3c(n2)CC[C@H](c2ccccc2C)C3)cc1` were 5% and -0.85.
Taken in the same sequence, the figures for `O=C(Cc1c[nH]c(=O)[nH]c1=O)N1CC[C@@]2(CCCN(CC3CCC3)C2=O)C1` were -21% and 2.24.
Taken in the same sequence, the figures for `Cc1cc(NC(=O)CCOc2cc(C)c(C)nn2)no1` were -19% and 1.74.
On to `Cc1cc(C#N)ccc1-c1cccc(C(=O)N2CCNC(=O)[C@@H]2CCO)c1`, for which the “% Inhibition” value is -9% and the Z score was determined as 0.79.
For `CC1(C)OB(C2CCN(C(=O)OCC(F)(F)F)CC2)OC1(C)C`, the “% Inhibition” value is 3% and the Z score is listed as -0.41.
Taken in the same sequence, the figures for `Cc1c(C(=O)N[C@H]2CCCN(c3ccccc3F)C2)nnn1C(C)C` were -1% and 0.16.
The corresponding values for `O=C(c1cccc2cnccc12)N1CC[C@H](O)[C@@H](O)C1` are 5% and -0.59.
The corresponding values for `Cc1cnc(C2CC2)n1CCNC(=O)c1ccccn1` are -14% and 2.29.
Consider `Cc1nc2cc(C(=O)OCc3cccc(N(C)C)c3)cnc2[nH]1`, for which the “% Inhibition” value is -11% and the Z score was 1.42.
The corresponding values for `CC(C)[C@H](C)N(CCS(=O)(=O)c1ccc(Cl)cc1)C1CC1` are -13% and 1.27.
The corresponding values for `C[C@H]1CN(C(=O)CN(C)c2cnccn2)CC(C)(C)O1` are -11% and 1.92.
The corresponding values for `CN(Cc1ccc(F)cc1Cl)C(=O)[C@@]1(C)CCNC1` are -2% and 0.3.
As for `Cc1ncnc(N2CCN(C3CCN(C(C)C)CC3)[C@@H](CCO)C2)c1C`, the “% Inhibition” value worked out at 7% and the Z score is -1.02.
Regarding `COc1ccc(CNC(=O)Cn2c3ccccc3c3cn[nH]c(=O)c32)cc1`, the “% Inhibition” value is recorded as -10% and the Z score is on record as 1.95.
Taken in the same sequence, the figures for `CC(C)(C)c1cc(NC(=O)c2cnc(OC3CCOCC3)c(Cl)c2)on1` were 3% and -0.62.
Consider `CCOC(=O)c1nn(CCC(C)C)c2c1CN(C(=O)c1cc(C)[nH]n1)CC2`, for which the “% Inhibition” value is -12% and the Z score was found to be 1.6.
Taken in the same sequence, the figures for `O=C1CN(C(=O)c2cc(O)ccc2Cl)CN1CC(F)(F)F` were 4% and -0.43.
The corresponding values for `CCCCC(NC(=O)CC(c1nccn1C)C(F)(F)F)C(=O)O` (stereo not given) are -14% and 2.6.
Taken in the same sequence, the figures for `O=C(O)CCCC(=O)Nc1ccc(Br)cc1Br` were -12% and 1.63.
In the case of `Cc1cccc2c(-c3ncn(CC(=O)O)n3)c[nH]c12`, the “% Inhibition” value is listed as -6% and the Z score came out at 1.27.
For the molecule `c1ccc(-c2nnc[nH]2)c(OCCO[C@@H]2CCCCO2)c1`, the “% Inhibition” value is -1% and the Z score is reported as 0.14.
The corresponding values for `CN1C(=O)C[C@H](C(=O)N2CCc3c(O)cccc3C2)[C@H]1c1nccn1C` are -5% and 0.79.
The corresponding values for `CC(C)CN1CC2(CCN(c3nccc(N4CCC[C@H](O)C4)n3)CC2)CC1=O` are -11% and 2.15.
On to `CCn1ccc(=O)c(NC(=O)N[C@@H](C)CCC(C)C)c1`, for which the “% Inhibition” value is recorded as -14% and the Z score is on record as 2.06.
The corresponding values for `CCn1ccc(C(=O)N(C)CCc2noc(C(F)(F)F)n2)cc1=O` are -8% and 1.29.
Take `O=S(=O)(NC1CCCCCC1)c1ccc2c(c1)OCCO2`: the “% Inhibition” value was -7% and the Z score turned out to be 1.05.
`COCc1nc(C)c(C(=O)N2CC[C@](C)(O)C2)s1`: the “% Inhibition” value is -8% and the Z score came to 1.14.
With `CCCn1nnnc1CNc1cc(F)cc(Br)c1`, the “% Inhibition” value is recorded as -7% and the Z score is on record as 1.36.
In the case of `CCOC(C)c1nc(CN2CCCC2c2nccn2C)cs1` (stereo not given), the “% Inhibition” value is recorded as -4% and the Z score was found to be 0.61.
As for `Cn1ncc2c1CCCC2NC1C[C@@H]2CCCC[C@H]12` (stereo not given in full), the “% Inhibition” value came to 4% and the Z score was -0.49.
Taken in the same sequence, the figures for `CC1(c2nsc(NC(=O)CC3CCC(F)(F)CC3)n2)CC1` were -5% and 1.05.
The corresponding values for `Cc1noc([C@H](C)NC(=O)Nc2nc3c(s2)CCC3(C)C)n1` are -8% and 1.1.

Source of the values: ChEMBL document CHEMBL4888484, “Replenishing the malaria drug discovery pipeline: Screening and hit evaluation of the MMV Hit Generation Library 1 (HGL1) against asexual blood stage Plasmodium falciparum ,using a nano luciferase reporter read-out” (2022).
